Literature values, collected in PMC11006913.
The list shows a part of the results.

Molecular target: PROP1 R112Q (Homo sapiens) (UniProt O75360)
Conditions: PBM; conditions not shown; double strand, one strand shown; scale: upbm affinity estimate (log intensity, higher = more binding, comparable within an allelic series)

Chain of UniProt O75360 (O75360 56-141 R112Q): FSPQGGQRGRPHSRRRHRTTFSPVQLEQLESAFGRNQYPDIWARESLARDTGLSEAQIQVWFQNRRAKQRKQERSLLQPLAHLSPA

| Sequence | binding signal |
| --- | --- |
| ATTGATTG [8-mer ATTGATTG] | 12.6 |
| CAATTGGA [8-mer CAATTGGA] | 12.3 |
| ATCTATTG [8-mer ATCTATTG] | 11.8 |
| TCTCATAA [8-mer TCTCATAA] | 11.7 |
| CTAATAGC [8-mer CTAATAGC] | 12.1 |
| TATTGGCA [8-mer TATTGGCA] | 12 |
| ATTTAGTA [8-mer ATTTAGTA] | 12 |
| AGTAATCA [8-mer AGTAATCA] | 12.1 |
| GCCATTAA [8-mer GCCATTAA] | 11.9 |
| CAATTCAG [8-mer CAATTCAG] | 11.9 |
| AGTATTAT [8-mer AGTATTAT] | 11.8 |
